In the supplement of paper PMC5655136:
These are enrichments in a pooled selection; single values are uncertain.

Tested on: NB7
Experiment: fold depletion of shRNA, plasmid library share / infected cells without Dox share (9 days) (ratio); higher = more depleted after infection (more toxic, leaky expression from a Tet-inducible vector; NB7 is a neuroblastoma line without caspase-8)
[1] = shRNA pool: CD95L ORF + CD95L 3'UTR + Venus libraries
[2] = shRNA pool: CD95 ORF + CD95 3'UTR + Venus libraries
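Also: shRNA barcodes quantified by deep sequencing of PCR amplicons from cellular DNA, counts expressed as percent of each subpool, ratio averaged over two biological duplicates.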

CAGATTGAAAAGGACACCTTT
fold depletion of shRNA [1]: 0.749

CAGCACGACTTCTTCAAGTCC
fold depletion of shRNA [1]: 2.74 | fold depletion of shRNA [2]: 1.51

CAGCAGAACACCCCCATCGGC
fold depletion of shRNA [1]: 0.777 | fold depletion of shRNA [2]: 1.27

CAGCAGAACAGAAAGTTCAAC
fold depletion of shRNA [2]: 0.827

CAGCAGCCCTTCAATTACCCA
fold depletion of shRNA [1]: 0.389

CAGCATCATCTTTGGAGAAGC
fold depletion of shRNA [1]: 1.77

CAGCATCTTCACTTCTAAATG
fold depletion of shRNA [1]: 0.368

CAGCCACAACGTCTATATCAC
fold depletion of shRNA [1]: 2.91

CAGCCAGATGCACACAGCATC
fold depletion of shRNA [1]: 5.47

CAGCCCTTCAATTACCCATAT
fold depletion of shRNA [1]: 1.23

CAGCGTGTCCGGCGAGGGCGA
fold depletion of shRNA [1]: 0.216 | fold depletion of shRNA [2]: 0.328

CAGCTACCAGGTGTTCTACAC
fold depletion of shRNA [1]: 1.9

CAGCTACTAATGATGTTTTCC
fold depletion of shRNA [1]: 0.625

CAGCTCGCCGACCACTACCAG
fold depletion of shRNA [1]: 0.652 | fold depletion of shRNA [2]: 0.804

CAGCTCTCCCTGGGCCCCTCC
fold depletion of shRNA [1]: 32.5

CAGCTCTTCCACCTACAGAAG
fold depletion of shRNA [1]: 0.73

CAGCTTATACATAGCAATGGT
fold depletion of shRNA [2]: 1.62

CAGGAGAGTATTACTAGAGCT
fold depletion of shRNA [2]: 0.859

CAGGAGCGCACCATCTTCTTC
fold depletion of shRNA [1]: 2.08 | fold depletion of shRNA [2]: 1.17

CAGGATCTGGTGATGATGGAG
fold depletion of shRNA [1]: 1.57

CAGGCACCGAGAATGTTGTAT
fold depletion of shRNA [1]: 0.561

CAGGCTAACCCCACTCTATGA
fold depletion of shRNA [2]: 1.24

CAGGTGAAAGGAAAGCTAGGG
fold depletion of shRNA [2]: 0.908

CAGGTGTTCTACACTCATCTT
fold depletion of shRNA [1]: 1.17

CAGTCAATGGGGATGAACCAG
fold depletion of shRNA [2]: 3.14

CAGTCCACCCCCTGAAAAAAA
fold depletion of shRNA [1]: 3.82

CAGTCCGCCCTGAGCAAAGAC
fold depletion of shRNA [1]: 1.31 | fold depletion of shRNA [2]: 0.59

CAGTGAGGGTCTTCTTACATG
fold depletion of shRNA [1]: 0.589

CAGTGCAATTGTAGGGGTGTG
fold depletion of shRNA [1]: 2.71

CAGTGCTGATCATTTATATGT
fold depletion of shRNA [1]: 0.58

CAGTGCTTCGCCCGCTACCCC
fold depletion of shRNA [1]: 1.04 | fold depletion of shRNA [2]: 0.661

CAGTGGCAATAAATTTATCTG
fold depletion of shRNA [2]: 0.812

CAGTGTATGTTAGTACAAATG
fold depletion of shRNA [2]: 0.866

CAGTGTTCAATCTTACCAGTG
fold depletion of shRNA [1]: 2.31

CAGTTACTGAACAGGCAGGCC
fold depletion of shRNA [2]: 1.48

CAGTTCTGAGTATATGCAATT
fold depletion of shRNA [2]: 1.36

CAGTTCTTCCCTGTCCAACCT
fold depletion of shRNA [1]: 2.11

CAGTTGAGACTCAGAACTTGG
fold depletion of shRNA [2]: 0.502

CAGTTTATTGGTGTCATATTA
fold depletion of shRNA [2]: 1.29

CATAAGCCCTGTCCTCCAGGT
fold depletion of shRNA [2]: 0.831

CATAATAAGCTAAAGAGGCTG
fold depletion of shRNA [1]: 1.67

CATACCCCCAAGTTTCTAAGA
fold depletion of shRNA [2]: 0.855

CATAGAAAACATTAAATTATA
fold depletion of shRNA [2]: 1.03

CATAGCAATGGTAAAATCATC
fold depletion of shRNA [2]: 0.785

CATATCCCCAGATCTACTGGG
fold depletion of shRNA [1]: 1.92

CATATCCTGAGCCATCGGTGA
fold depletion of shRNA [1]: 1.46

CATATGATTCTGTAGTATGAA
fold depletion of shRNA [2]: 0.581

CATATTAGGAAAATATGGGTT
fold depletion of shRNA [1]: 0.897

CATATTATACAATATTTCAAT
fold depletion of shRNA [2]: 0.837

CATATTTATGTAAAGTATATG
fold depletion of shRNA [2]: 0.888

CATATTTCTAAACTTTGTTTA
fold depletion of shRNA [2]: 0.715

CATATTTGTAGATTTTTAATA
fold depletion of shRNA [2]: 1.26

CATCAAAAGCATTTTGAGCAG
fold depletion of shRNA [2]: 1.68

CATCAACTCCAAGGGATTGGA
fold depletion of shRNA [2]: 0.621

CATCAACTTCATGGAAAGAAA
fold depletion of shRNA [2]: 0.517

CATCAAGAGTAAATGCAGTGG
fold depletion of shRNA [2]: 0.582

CATCAAGGAATGCACACTCAC
fold depletion of shRNA [2]: 4.59

CATCAAGGCCAACTTCAAGAT
fold depletion of shRNA [1]: 1.25 | fold depletion of shRNA [2]: 1.06

CATCATCTGGATTTAGGAATT
fold depletion of shRNA [2]: 0.69

CATCATCTTTGGAGAAGCAAA
fold depletion of shRNA [1]: 0.561

CATCCTCAAGGACATTACTAG
fold depletion of shRNA [2]: 1.41

CATCCTGGGGCACAAGCTGGA
fold depletion of shRNA [1]: 0.991 | fold depletion of shRNA [2]: 0.911

CATCCTGGTCGAGCTGGACGG
fold depletion of shRNA [1]: 1.04 | fold depletion of shRNA [2]: 0.789

CATCGACTTCAAGGAGGACGG
fold depletion of shRNA [1]: 1.52 | fold depletion of shRNA [2]: 1.43

CATCGAGCTGAAGGGCATCGA
fold depletion of shRNA [1]: 0.681 | fold depletion of shRNA [2]: 0.824

CATCGAGGACGGCGGCGTGCA
fold depletion of shRNA [1]: 0.453 | fold depletion of shRNA [2]: 0.385

CATCGGCGACGGCCCCGTGCT
fold depletion of shRNA [1]: 0.944

CATCGGTGAAACTAACAGATA
fold depletion of shRNA [1]: 1.86

CATCTAACATATGATTCTGTA
fold depletion of shRNA [2]: 0.795

CATCTGGATTTAGGAATTGCT
fold depletion of shRNA [2]: 0.931

CATCTTAGTGCCTGAGAGTAT
fold depletion of shRNA [1]: 2.06
